Data published in PMC9673142, “1,3-Diarylpyrazolyl-acylsulfonamides Target HadAB/BC Complex in Mycobacterium tuberculosis” (ACS Infectious Diseases, 2022).
≈ marks a conversion by molar mass, not a printed value. Read-outs that look alike come from different tables or passages of the source.

Key:
[1] = test system: Klebsiella pneumoniae ATCC BAA-1705; assay: ESKAPE antimicrobial screening, microdilution broth MIC; type: cell-based
[2] = test system: Pseudomonas aeruginosa ATCC 27853; assay: as above; type: cell-based
[3] = test system: Enterobacter cloacae ATCC 700323; assay: as above; type: cell-based
[4] = test system: Escherichia coli ATCC 25922; assay: as above; type: cell-based; details: read-out: MIC Escherchia coli (ATCC 25922)
[5] = test system: Acinetobacter baumannii ATCC 19606; assay: as above; type: cell-based
[6] = test system: Staphylococcus aureus ATCC 25923; assay: as above; type: cell-based
Mtb HadAB = Mtb HadAB (Mycobacterium tuberculosis, UniProt I6WYY7+P9WFK1); details: read-out: Ki Mtb HadAB; cited from earlier work
[7] = Klebsiella pneumoniae, ATCCBAA1705, MH broth, 16 hours, tested 0.25 – 128 µM
[8] = Pseudomonas aeruginosa, ATCC27853, MH broth, 16 hours, tested 0.25 – 128 µM
[9] = Enterobacter cloacae, ATCC700323, MH broth, 16 hours, tested 0.25 – 128 µM
[10] = Escherichia coli, ATCC25922, MH broth, 16 hours, tested 0.25 – 128 µM
[11] = Acinetobacter baumannii, ATCC19606, MH broth, 16 hours, tested 0.25 – 128 µM
[12] = Staphylococcus aureus, ATCC25923, MH broth, 16 hours, tested 0.25 – 128 µM
[13] = MH broth, 16 hours, tested 0.25 – 128 µM

Row | Molecule | MIC [1, 7] [µM] | MIC [2, 8] [µM] | MIC [3, 9] [µM] | MIC [4, 10] [µM] | MIC [5, 11] [µM] | MIC [6, 12] [µM] | also measured
1 | CS(=O)(=O)NC(=O)CCc1cn(-c2ccc(Br)cc2)nc1-c1ccncc1 [Compound 1] | > 128 | > 128 | > 128 | > 128 | > 128 | > 128 | –
2 | CS(=O)(=O)NC(=O)CCc1cn(-c2ccc(Cl)cc2)nc1-c1ccc(Cl)cc1 [Compound 2] | > 128 | > 128 | > 128 | > 128 | > 128 | 128 (≈ 56.1 µg/mL) | MIC [6, 13]: 128 µM (≈ 56.1 µg/mL)
3 | CS(=O)(=O)NC(=O)NCc1cn(-c2ccc(C(F)(F)F)nc2)nc1-c1ccncc1 [Compound 11] | > 128 | > 128 | > 128 | > 128 | > 128 | > 128 | –
4 | CS(=O)(=O)NC(=O)NCc1cc(-c2ccc(Br)cc2)oc1-c1ccncc1 [Compound 14] | > 128 | > 128 | > 128 | 128 (≈ 57.6 µg/mL) | > 128 | > 128 | –
5 | NC[C@H]1O[C@H](O[C@H]2[C@H](O)[C@@H](O[C@H]3O[C@H](CO)[C@@H](O)[C@H](N)[C@H]3O)[C@H](N)C[C@@H]2N)[C@H](O)[C@@H](O)[C@@H]1O [Kanamycin, kanamycin, reference compound] | – | – | – | – | – | – | MIC [1]: > 32 µM; MIC [2]: > 32 µM; MIC [3]: 8 µM (≈ 3.88 µg/mL); MIC [4]: 4 µM (≈ 1.94 µg/mL); MIC [5]: 16 µM (≈ 7.75 µg/mL); MIC [6]: 2 µM (≈ 0.969 µg/mL)
6 | COc1c(N2C[C@@H]3CCCN[C@@H]3C2)c(F)cc2c(=O)c(C(=O)O)cn(C3CC3)c12 [Moxifloxacin, moxifloxacin, reference compound] | > 32 | 2 (≈ 0.803 µg/mL) | – | 0.06 (≈ 0.0241 µg/mL) | 0.5 (≈ 0.201 µg/mL) | 0.06 (≈ 0.0241 µg/mL) | –
7 | O=C(/C=C/c1ccc(O)c(O)c1)c1ccc(O)cc1O [butein] | – | – | – | – | – | – | Ki (Mtb HadAB): 13.5 µM
8 | O=c1c(O)c(-c2ccc(O)c(O)c2)oc2cc(O)ccc12 [fisetin] | – | – | – | – | – | – | Ki (Mtb HadAB): 10.9 µM
9 | gentamycin [reference compound] | – | – | – | – | – | – | MIC [1, 13]: 4 µM; MIC [2, 13]: 2 µM; MIC [3, 13]: 2 µM; MIC [4, 13]: 2 µM; MIC [5, 13]: 16 µM; MIC [6, 13]: 0.5 µM
